Hit rate of the full screen: of about 45,000 compounds, about 65 (0.1%) were called active. Calls come from the whole dose curve; as a rule, active = well fitted activation curve with a large enough effect; inconclusive = small, poorly fitted or top-dose-only effect; inactive = no such curve, though single readings can be large or run the other way. The list shows a part of the results.
Target: Galactocerebrosidase (Homo sapiens) (UniProt P54803)
Experiment: A Novel Cell-Based Assay to Identify Small Molecules for B -Galactocerebrosidase; note: 0% is about no effect; nearly all actives have a fitted effect of over 65% in size
Details: 145M-Twi-hGALC-G270D cells (Twitcher mouse brain line with human GALC G270D), HMU-beta-Gal fluorescence, 48 h; series mostly up to 57.5 µM; activation: at the top concentration
How it was run: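 Live 145M-Twi cells (Twitcher mouse brain-derived, GALC-null) stably expressing human GALC-G270D, with a wild-type GALC line, were compound-treated. Residual GALC activity was then read as fluorescence from 0.1 mM final HMU-β-gal at pH 5.2; higher signal means activation.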

Sequence of UniProt P54803 (P54803 whole entry, looked up): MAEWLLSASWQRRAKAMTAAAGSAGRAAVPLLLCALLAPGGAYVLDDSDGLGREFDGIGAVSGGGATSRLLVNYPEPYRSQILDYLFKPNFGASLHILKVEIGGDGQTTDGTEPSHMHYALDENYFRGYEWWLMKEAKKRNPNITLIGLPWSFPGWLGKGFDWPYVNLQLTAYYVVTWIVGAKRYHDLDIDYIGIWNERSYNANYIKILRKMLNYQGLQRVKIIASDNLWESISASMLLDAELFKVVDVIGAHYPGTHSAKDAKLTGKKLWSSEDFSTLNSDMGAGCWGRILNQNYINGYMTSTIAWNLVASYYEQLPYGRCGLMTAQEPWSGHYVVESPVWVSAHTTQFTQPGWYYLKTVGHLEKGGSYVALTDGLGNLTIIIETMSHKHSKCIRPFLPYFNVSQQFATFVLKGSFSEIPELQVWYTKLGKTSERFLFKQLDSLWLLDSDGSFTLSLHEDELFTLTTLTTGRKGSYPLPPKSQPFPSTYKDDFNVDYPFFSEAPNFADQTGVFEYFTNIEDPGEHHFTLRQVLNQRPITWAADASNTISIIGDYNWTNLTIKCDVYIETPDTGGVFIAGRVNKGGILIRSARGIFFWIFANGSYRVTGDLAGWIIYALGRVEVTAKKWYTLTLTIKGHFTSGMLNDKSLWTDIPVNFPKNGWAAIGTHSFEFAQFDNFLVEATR

activation, inactive:
CC(=O)N1CCc2cc(CNC(=O)Nc3ccccc3C(F)(F)F)ccc21 4.35%, CN(C)S(=O)(=O)N(CC(=O)NCCSc1ccc(Cl)cc1)c1ccccc1 -5.08%, CCC(C(=O)Nc1cc(OC)ccc1OC)n1nc(-c2ccccc2)c2c(c1=O)CCCC2 (configuration not stated) 9.34%, Cn1c2ccccc2c2c(C(=O)N3CCN(c4cccc(C(F)(F)F)c4)CC3)cn(C3CCCCC3)c(=O)c21 -20%, CCOc1ccccc1CNC(=O)C1CCN(Cc2cc3ccccc3n2Cc2ccccc2)CC1 -10.7%, Cc1ccc(-c2cn3nc(N4CCC(C(=O)Nc5ccccc5C)CC4)sc3n2)cc1 -2.8%, CCCS(=O)(=O)c1nc(S(=O)(=O)c2ccc(C)cc2)c(NC(C)c2ccccc2)s1 (configuration not stated) 23.6%, CN1C(C(=O)NC(C)(C)C)=CC(c2ccc3c(c2)OCO3)=NS1(=O)=O -19.3%, COc1cccc(NS(=O)(=O)c2ccc3[nH]cc(C(=O)NCCc4ccc(C)cc4)c(=O)c3c2)c1 1.96%, Cc1ccc(-n2ccnc(NCc3cccs3)c2=O)cc1C -8.41%, Cc1cccc(Cn2c(SCc3ccc(C(=O)NCc4ccccc4F)cc3)nc3cccnc32)c1 -5.42%, Cc1cc(C)c2oc(C(=O)Nc3nc4ccc(Cl)cc4s3)cc(=O)c2c1 -14.9%, COc1cc2nc(NC(=O)c3ccc(S(=O)(=O)N4CCCC4)cc3)sc2cc1OC -10.7%, O=C(COCc1cc(-c2ccc3c(c2)OCO3)on1)N1CCN(c2cccc(C(F)(F)F)c2)CC1 -18.3%, CCC(=O)N1CCc2cc(S(=O)(=O)NCCC(=O)Nc3cccc(SC)c3)ccc21 -12.3%, O=C(COc1ccccc1F)Nc1ccc2nc(SCc3ccccc3)sc2c1 -1.51%, COc1ccc2oc(=O)c(-c3nc4ccc(C)cc4[nH]3)cc2c1 -13.3%, COc1ccc(Br)cc1CC1C(=O)Nc2ccccc21 (configuration not stated) -41.2%, Cc1ccc(-n2ncc(C(=O)N3CCN(c4cccc(C)c4C)CC3)c2C2CCNCC2)c(C)c1 -19.2%, CCOC(=O)c1cc(-c2ccc(F)cc2)n(CCC(=O)NCc2ccc(C)cc2)c1C -5.85%, Cc1ccc2c(c1)sc1nc(=O)n(-c3cccc(Cl)c3)c(=O)n12 -9.03%, Cc1ccc(NC(=O)CN2CCN(C3CCCCC3)C(=O)C2=O)cc1C -15.3%, CCCN1C(C(=O)c2ccccc2)=C(OC(=O)C(C)(C)C)c2ccccc2S1(=O)=O -8.9%, CN(C(=O)NCc1noc2ccccc12)c1cccc(Cl)c1 -10.4%, COc1ccccc1NC(=O)C1=C(C)Nc2nc(SCc3ccccc3Cl)nn2C1c1cccnc1 (configuration not stated) -0.455%, O=C(Cn1ncc2c3ccccc3n(Cc3cccc(Cl)c3)c2c1=O)N1CCCCC1 -15.4%, COc1ccc(CN2C(=O)c3ccccc3C2C(=O)NC2CCCCCC2)c(OC)c1 (configuration not stated) -13.5%, CCOC(=O)C1CCN(C(=O)Cn2nc(CC)n3c(cc4occc43)c2=O)CC1 -17.4%, CCCCc1nn2c(C)c(-c3ccc(OCC)cc3)nc2s1 -35%, Cc1ccc(-n2c(=O)[nH]c3sc4c(c3c2=O)CCNC4)cc1C -19.9%, Cc1cc(Cl)ccc1NS(=O)(=O)c1cc2[nH]c(=O)c(=O)[nH]c2cc1C 4.98%, CCCCc1nn2c(=O)cc(COC(=O)c3ccc(NC(=O)c4cccc(OC)c4)cc3)nc2s1 -14.5%, CCCN1CCN(CC2=C(C(=O)OCC)C(c3cccc(OC)c3OC)NC(=O)N2)CC1 (configuration not stated) 20.5%, COc1ccc(CN2CCN(c3ncnc4sc5c(c34)CCCC5)CC2)cc1F -12.8%, Cc1ccc(NC(=O)N2CCc3c(sc4c3CCCC4)C2c2ccccc2)cc1F (configuration not stated) -10.8%, CSc1ncc(C(=O)NCc2ccccc2Cl)c(C(F)(F)F)n1 -7.25%, CCOc1cccc2sc(NC(=O)c3ccc(S(=O)(=O)N4CCc5ccccc54)cc3)nc12 2.56%, CCc1cccc(C)c1NC(=O)C(CC)Sc1nc2ccncc2[nH]1 (configuration not stated) -24.8%, Cc1cc(C)cc(NC(=O)N2CCN(C)c3ncccc32)c1 -11.7%, COc1cc(C2Nc3ccccc3-c3nnc(SCc4ccc(Cl)cc4)nc3O2)ccc1OCC(=O)O (configuration not stated) -10.9%, Cc1ccc2c(CC(=O)Nc3ccc(S(=O)(=O)Nc4nc(C)cc(C)n4)cc3)coc2c1 -16.4%, CCOC(=O)CSc1nc2cc3c(cc2c(=O)n1CCCCCC(=O)NCc1ccc2c(c1)OCO2)OCO3 24.3%, CCCCN(C)C(=O)c1ccc2c(c1)N(Cc1cccc(Cl)c1)C(=O)c1ccccc1S2=O (configuration not stated) -18.6%, CCC1=Nc2cc(C(=O)NCCCOC(C)C)ccc2Sc2ccc(C)cc21 -7.39%, O=C(NCc1ccc(Cl)cc1)C1(c2cccs2)CCOCC1 -4.58%, Cc1cc2oc(C(=O)N(Cc3ccc(N(C)C)cc3)CC3CCCO3)c(C)c2cc1C (configuration not stated) -10.8%, O=C(CCCCn1c(=O)c2ccccc2n(Cc2ccccc2F)c1=O)NCc1ccc2c(c1)OCO2 -26.7%, CCN1CCc2c(sc(NC(=O)CSc3ccccc3)c2-c2nc3ccccc3s2)C1 -17.5%, COC(=O)C1=C(C)NC(C)=C(C(=O)OCCCN2CCC(c3ccccc3)(c3ccccc3)CC2)C1c1cccc([N+](=O)[O-])c1 (configuration not stated) -13.3%, COc1ccc(-c2noc(-c3cc(C(C)C)[nH]n3)n2)cc1 -22.1%, CCOc1ccc(CNC(=O)CN2C(=O)CSc3ccc(S(=O)(=O)N4CCOCC4)cc32)cc1OC -5.96%, Cn1c(=O)cc(OCC(=O)N2CCN(c3ccccc3F)CC2)c2ccccc21 -3.72%, CN(C)CCOC(c1ccccc1)c1ccc(Br)cc1 (configuration not stated) -12.8%, Cc1ccc(OCCSc2nc3ccccc3n2CC(=O)N2CCCCC2)cc1C 3.65%, COC(=O)c1ccccc1NC(=O)CCn1nc(C)c2c(C)n(-c3ccccc3)nc2c1=O -14.2%, Cc1ccc(CNC(=O)C2CCCN(c3nc4c(C)cc(C)cc4s3)C2)cc1 (configuration not stated) -9.52%, CC(=O)c1cccc(Nc2cc(C)nc3nc(-c4ccccc4C)nn23)c1 -10.7%, COC(=O)c1ccccc1NC(=O)Cn1ncc2c(C)n(Cc3ccc(F)cc3)c(C)c2c1=O -9.3%, O=C(Nc1ccc(NC(=O)c2cccs2)cc1)c1ccc(Cl)cc1 1.42%, O=C(COc1ccccc1)NCCc1csc(-c2ccc(F)cc2)n1 -25.7%, CC1(c2ccccc2)OC(C(=O)O)=CC1=O (configuration not stated) -8.73%, Cc1ccccc1Cc1c(C)nc2c(-c3ccccc3)c(C)[nH]n2c1=O -6.35%

From PubChem BioAssay AID1159614 (National Center for Advancing Translational Sciences (NCATS), 2016)
